Test results: PubChem BioAssay AID1347417 (National Center for Advancing Translational Sciences (NCATS), 2020)
The campaign covered roughly 120,000 compounds. About 5,300 (4.4%) were called active. Inconclusive results, whose numbers are uncertain, are shown with a selection of clear calls. The call rests on the fitted dose curve; in most records, active means well fitted inhibition curve with a large enough effect; inconclusive means small, poorly fitted or top-dose-only effect; inactive means no such curve, though single readings can be large or run the other way. Where the call is inconclusive, the potency comes from a doubtful curve fit.

assay: qHTS Primary assay for Inhibitors of Plasmodium falciparum Dd2 growth in vitro; further: nearly all actives have a fitted effect of over 65% in size;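 on activity, negative = inhibition: plate controls were DMSO vehicle for no effect and reference drug for full effect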; details: P. falciparum Dd2 growth, SYBR Green, 72 h; activity, negative = inhibition: at 28.9 µM (top of the series) unless noted; series mostly up to 28.9 µM
Method in brief: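 Readout: SYBR Green fluorescence, 485 nm excitation, 535 nm emission, after ~16 h lysis at 37C. Before that, Dd2-infected red cells (2.5% hematocrit) grew 72 h with compound, 29 uM top final concentration.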
Potency means the concentration at half of the fitted maximal effect; tags describe the fitted curve by direction and shape.

Row | Structure (SMILES) | Potency | activity, negative = inhibition | outcome
1 | COc1cccc(CCNC(=O)c2c(C)noc2-c2cc(OC)c(OC)c(OC)c2)c1 | inconclusive: 3.55 µM [inhibitor, partial curve] |  | 
2 | CCN1c2cc(C(=O)NCc3ccccc3OC)ccc2C(=O)N2CCCCCC21 (stereo not drawn) | active: 5.01 µM |  | 
3 | CC1CCC2(CC1)OCC(C(=O)NC1CCCCC1)N2C(=O)c1ccc(F)cc1 (stereo not drawn) | inconclusive: 10 µM [inhibitor, partial curve] |  | 
4 | O=C(Cn1c(=O)c2c(n1Cc1ccccc1)CN(Cc1ccccc1)CC2)N1CCC(c2ccccc2)CC1 | inconclusive: 10 µM [inhibitor, single point] |  | 
5 | COc1ccc2cc3c(N)nn(C(=O)c4ccccc4Cl)c3nc2c1 | inconclusive: 17.8 µM [inhibitor, single point] |  | 
6 | COc1cc2c(cc1OC)C(C[C@H]1CN(S(=O)(=O)c3cccs3)CC[C@H]1CC(=O)O)=NCC2 | inconclusive: 8.91 µM [inhibitor, partial curve, poor fit] |  | 
7 | O=C(Nc1ccccc1)N1CCC2(CC1)CC(=O)N(c1ccccc1)c1ccccc1O2 | inconclusive: 1.41 µM [inhibitor, partial curve, poor fit] |  | 
8 | O=C(NCc1ccccc1)c1ccc2c(c1)CCN2S(=O)(=O)c1ccc(Cl)cc1 | inconclusive: 17.8 µM [inhibitor, single point] |  | 
9 | COC[C@@H]1CN(C(=O)CCc2cccc(OC)c2)C[C@H]1c1ccncc1 |  | inactive: -2.2% | 
10 | CC(C)NC(=O)N1Cc2ccccc2OC2(CCN(C(=O)c3ccc4[nH]ccc4c3)CC2)C1 | active: 10 µM |  | 
11 | C=CCn1nc(C(=O)N2CCOCC2)c2c1CCC(NCc1c(OC)ccc3ccccc13)C2 (stereo not drawn) | inconclusive: 14.1 µM [inhibitor, single point] |  | 
12 | COc1ccc(Cl)cc1S(=O)(=O)N1CCC(n2cnnc2-c2ccccc2)CC1 | inconclusive: 12.6 µM [inhibitor, partial curve, poor fit] |  | 
13 | COCc1cc(C[C@@H]2CC[C@H](O)[C@@H](CNCc3cccc(F)c3)O2)no1 | inconclusive: 3.98 µM [inhibitor, partial curve, poor fit] |  | 
14 | CCOc1ccccc1C(=O)N1CCN(c2cc(C(F)(F)F)nc(C)n2)CC1 | inconclusive: 20 µM [inhibitor, single point] |  | 
15 | Cc1ccccc1C(=O)Nc1cccc(OCc2cc(=O)n3cccc(C)c3n2)c1 | inconclusive: 17.8 µM [inhibitor, single point] |  | 
16 | O=C(Nc1ccc2n(c1=O)C[C@H]1C[C@@H]2CN(C(=O)c2ccccn2)C1)c1cccs1 |  | inactive: 4.89% [at 44.1 µM] | 
17 | COc1ccc(Cl)cc1C(=O)N1CCC2(CC1)N=C(c1ccc(C)cc1)NO2 |  |  | inactive
18 | Cc1ccc(Nc2sc(C(=O)c3ccccc3)c(N)c2S(=O)(=O)c2ccccc2)cc1Cl | inconclusive: 11.2 µM [inhibitor, single point] |  | 
19 | O=C(NCCc1ccccc1)N(C1CCOCC1)C1CCN(Cc2cccc(F)c2)CC1 | inconclusive: 14.1 µM [inhibitor, single point] |  | 
20 | Clc1ccc(-c2noc([C@@H]3Cc4nc[nH]c4CN3CC3CCCCC3)n2)cc1 | inconclusive: 7.94 µM [inhibitor, partial curve, poor fit] |  | 
21 | CCCNC(=O)N1CCC2(CC1)NCCc1c2[nH]c2ccccc12 | inconclusive: 8.91 µM [inhibitor, partial curve, poor fit] |  | 

Row | Structure (SMILES) | Potency | activity, negative = inhibition | outcome
22 | COc1ccccc1CN1CC(CNC(=O)Nc2ccccc2)C2(C1)CN(c1ccccc1)C2 (stereo not drawn) | inconclusive: 1.41 µM [inhibitor, partial curve, poor fit] |  | 
23 | CC(C)Oc1ccc(C(=O)N(Cc2ccc(N(C)C)cc2)C2CCS(=O)(=O)C2)cc1 (stereo not drawn) |  | inactive: -3.91% | 
24 | CN1CCN(c2nc3c(c(=O)[nH]2)CCN(Cc2ccc(Br)cc2)CC3)CC1 |  | inactive: 86.5% [at 5.79 µM] | 
25 | CC1=C[C@@H](CN2C(=O)C(C)=C(C)C2=O)[C@H](C(C)C)C[C@H]1Cc1nc2ccc(C)cc2[nH]1 | inconclusive: 31.6 µM [inhibitor, single point] |  | 
26 | COc1cccc(C(=O)N2CCC(N3C[C@H](O)C[C@H]3C(=O)NCc3ccccc3)CC2)c1 | inconclusive: 17.8 µM [inhibitor, single point] |  | 
27 | Cc1ccc(C)c(C(=O)N2CCN(c3cc(-c4ccc(Cl)cc4)[nH]n3)CC2)c1 | inconclusive: 3.16 µM [inhibitor, single point] |  | 
28 | COc1ccc(-c2noc(Nc3ccc(OC)c(OC)c3)n2)cc1 | inconclusive: 12.6 µM [inhibitor, single point] |  | 
29 | CCOCc1cc(CN2CCN(c3ccccc3OC)CC2)c(O)c2ncccc12 | active: 2 µM |  | 
30 | CCOc1ccc(NC(=O)CSc2oc(-c3ccccc3)nc2S(=O)(=O)c2ccc(Cl)cc2)cc1 | inconclusive: 17.8 µM [inhibitor, single point] |  | 
31 | COC(=O)c1cc(NC(=O)c2cc3sccc3n2Cc2ccc(Cl)cc2)cc(C(=O)OC)c1 | active: 11.2 µM |  | 
32 | COc1cccc(NC(=O)c2oc3ccccc3c2NC(=O)C2CCCCC2)c1 | inconclusive: 17.8 µM [inhibitor, single point] |  | 
33 | COc1cc(Nc2nc(SCc3ccccc3Cl)nc3ccccc23)cc(OC)c1 | inconclusive: 11.2 µM [inhibitor, partial curve, poor fit] |  | 
34 | COc1ccc(C(=O)/C=C/c2cn(CC(O)CN3CCc4ccccc43)c3ccccc23)cc1 (stereo not drawn) |  | inactive: -3.41% | 
35 | CN(C)C(=O)N1Cc2ccccc2OC2(CCN(C(=O)c3ccc(N)nc3)CC2)C1 |  | inactive: 11.3% | 
36 | C=Cc1cccc(CN2CCC(CNC(=O)C3CCNCC3)C2)c1 (stereo not drawn) |  | inactive: -6.79% | 
37 | N#Cc1ccccc1S(=O)(=O)N[C@H]1CO[C@H]2[C@@H]1OC[C@@H]2n1nnnc1Oc1ccc(-n2ccnc2)cc1 | inconclusive: 8.91 µM [inhibitor, single point] |  | 
38 | COc1cccc(CN2CCCCCNC(=O)[C@@H]3CCC[C@@H]32)c1 |  |  | inactive
39 | O=C(O)CCC(=O)N1CCC2(CC1)CC(Cc1ccccc1)=NO2 |  | inconclusive: -30.6% [inhibitor] | 
40 | NCCn1cc(C(=O)N2CCC(Oc3ccncc3)CC2)nn1 |  | inactive: 7.38% | 
41 | CCOC(=O)N1CCN(Cc2nc3cc(NC(=O)c4cccc(C)c4)ccc3n2C(C)C)CC1 | active: 6.31 µM |  | 
42 | COc1cc(OC)cc(-c2nc3nc(C)c(CCC(=O)Nc4ccc(C)cc4C)c(C)n3n2)c1 | inconclusive: 0.0089 µM [inhibitor, full curve, poor fit] |  | 

Row | Structure (SMILES) | Potency | activity, negative = inhibition | outcome
43 | Cc1ccccc1-c1nccc2c(=O)cc(-c3cccnc3)oc12 | inconclusive: 22.4 µM [inhibitor, partial curve, poor fit] |  | 
44 | CCCS(=O)(=O)N1CC[C@@H](CC(=O)O)[C@@H](CC2=NCCc3cc(OC)ccc32)C1 |  | inactive: -14.2% [at 44.1 µM] | 
45 | O=C1NCCCCCN(Cc2cccc(F)c2)[C@@H]2C[C@@H](C(=O)N3CCc4ccccc4C3)C[C@H]12 | inconclusive: 10 µM [inhibitor, single point] |  | 
46 | COc1cccc(CN2CCCC3(CCN(c4cc(C)nc(N)n4)C3)C2)c1OC (stereo not drawn) | inconclusive: 3.98 µM [inhibitor, partial curve] |  | 
47 | COc1ccccc1NC(=O)Cn1c(=O)c(CNc2ccccc2)cc2cc(OC)c(OC)cc21 | inconclusive: 10 µM [inhibitor, single point] |  | 
48 | Fc1ccc(-n2ncc3c(Nc4cccc(Cl)c4)ncnc32)cc1 | inconclusive: 12.6 µM [inhibitor, single point] |  | 
49 | COc1ccc(-c2cc(N3CCCC(NC(=O)c4cc(F)ccc4F)C3)n[nH]2)cc1 (stereo not drawn) |  | inactive: -20.6% | 
50 | C=CCNC(=O)CN1CN(c2ccccc2)C2(CCN(C(=O)NCc3ccccc3)CC2)C1=O | inconclusive: 8.91 µM [inhibitor, single point] |  | 
51 | CN1CCCN(C(=O)Cc2ccc(OC(F)(F)F)cc2)c2ccccc21 | inconclusive: 5.01 µM [inhibitor, partial curve] |  | 
52 | Cc1cc(C)cc(C(=O)NCC(c2ccc(N(C)C)cc2)N2CCCC2)c1 (stereo not drawn) | inconclusive: 10 µM [inhibitor, single point] |  | 
53 | O=C(CCc1ccccc1)N1CCCCCC1CN1CCOCC1 (stereo not drawn) | inconclusive: 0.0708 µM [inhibitor, full curve, poor fit] |  | 
54 | CN(Cc1ccccc1)c1ccc(-c2nc(-c3ccncc3)no2)cc1[N+](=O)[O-] | inconclusive: 4.47 µM [inhibitor, partial curve, poor fit] |  | 
55 | O=C(NCCC1=CCCCC1)C1CCN(C(=O)N2CCOc3ccc(Cl)cc32)CC1 | inconclusive: 10 µM [inhibitor, single point] |  | 
56 | O=C(NCc1ccco1)c1ccc2c(c1)N(Cc1ccc(Cl)cc1)C(=O)c1ccccc1S2(=O)=O |  |  | inactive
57 | CC(c1nc(-c2ccc(Cl)cc2)nn1CC(=O)O)N1CCCC1=O (stereo not drawn) |  | inactive: 0.291% | 
58 | Cc1ccc2c(C(=O)N3CCCCCC3)cc(NC(=O)C3CCC3)cc2n1 | inconclusive: 17.8 µM [inhibitor, single point] |  | 
59 | CN(Cc1ccccc1)C[C@H]1CN2CC[C@H]1C[C@@H]2CNC(=O)c1ccccc1 | inconclusive: 3.98 µM [inhibitor, partial curve, poor fit] |  | 
60 | Cc1ccccc1C(=O)N1CCc2nc(-c3ccccc3)nc(-c3ccc(Cl)cc3)c2C1 | inconclusive: 3.55 µM [inhibitor, full curve, poor fit] |  | 
61 | O=C(COc1ccccc1)Nc1cccn2nc(C3CCC3)nc12 |  |  | inactive
62 | CC(C)NC(=O)c1ccccc1OCC1CCCN(C(=O)C2CCOCC2)C1 (stereo not drawn) |  | inactive: -12% | 
63 | CCc1noc([C@@H]2CC(F)(F)CN2C(=O)c2ccnn2C)n1 |  | inactive: 9.35% | 
